# The supplement of paper PMC8728848
# The list shows a part of the results.
# B1: MpAFP NterminalRI GFP (Marinomonas primoryensis) (protein)
# chain: MSDNQFPFATLGNAIGFITKLDGSVTVQSIDGQERVLKLGDPIFFGETVLTGGSGSVTIAFVDGTDVVIGGDSIVEMTDEIYNTGDNEDLVADSSSEIDALQNAILAGDDPTLIQDAPAAGNTLADQQRVDVSIERNDNSAQAGFGVDTQSSLPTYGYDTDNGNGGQATEREYSAPSLSRTLNQSPLLEHHHHHH
# Legend:
# Assay in all cases: glycan array binding signal (z-score within array); higher = stronger binding
# Conditions in all cases: glycan notation: IUPAC condensed, linker removed
# Gal(a1-3)Gal(b1-4)GlcNAc = target: Gal(a1-3)Gal(b1-4)GlcNAc
# Outline: (§1)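 Glycan array binding is given as a within-array Z-score, which can be read as non-binding when negative. The arrays, 3228 of them, came from the Consortium for Functional Glycomics database and were retained only where the protein sequence was available. Z-scores were averaged across arrays of the same protein sequence at different concentrations or buffers and across linkers.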
# [1] = target: Gal(a1-3)Gal(b1-4)GlcNAc(b1-2)Man
# Outline: as §1
# [2] = target: Gal(a1-3)Gal(b1-4)GlcNAc(b1-2)Man(a1-3)[Gal(a1-3)Gal(b1-4)GlcNAc(b1-2)Man(a1-6)]Man(b1-4)GlcNAc(b1-4)GlcNAc
# Outline: as §1
# [3] = target: Gal(a1-3)Gal(b1-4)GlcNAc(b1-3)GalNAc
# Outline: as §1
# [4] = target: Gal(a1-3)Gal(b1-4)GlcNAc(b1-6)GalNAc
# Outline: as §1
# [5] = target: Gal(a1-3)Gal(b1-4)[Fuc(a1-3)]GlcNAc
# Outline: as §1
# [6] = target: Gal(a1-3)Gal(b1-4)[Fuc(a1-3)]GlcNAc(b1-2)Man(a1-3)[Gal(a1-3)Gal(b1-4)[Fuc(a1-3)]GlcNAc(b1-2)Man(a1-6)]Man(b1-4)GlcNAc(b1-4)GlcNAc
# Outline: as §1
# Gal(a1-3)GalNAc = target: Gal(a1-3)GalNAc
# Outline: as §1
# [7] = target: Gal(a1-3)[Gal(a1-4)]Gal(b1-4)GlcNAc
# Outline: as §1
# [8] = target: Gal(a1-4)Gal(b1-3)GlcNAc(b1-2)Man(a1-3)[Gal(a1-4)Gal(b1-3)GlcNAc(b1-2)Man(a1-6)]Man(b1-4)GlcNAc(b1-4)GlcNAc
# Outline: as §1
# Gal(a1-4)Gal(b1-4)Glc = target: Gal(a1-4)Gal(b1-4)Glc
# Outline: as §1
# Gal(a1-4)Gal(b1-4)GlcNAc = target: Gal(a1-4)Gal(b1-4)GlcNAc
# Outline: as §1
# [9] = target: Gal(a1-4)Gal(b1-4)GlcNAc(b1-2)Man(a1-3)[Gal(a1-4)Gal(b1-4)GlcNAc(b1-2)Man(a1-6)]Man(b1-4)GlcNAc(b1-4)GlcNAc
# Outline: as §1
# [10] = target: Gal(a1-4)Gal(b1-4)GlcNAc(b1-3)Gal(b1-4)Glc
# Outline: as §1
# Gal(a1-4)GlcNAc = target: Gal(a1-4)GlcNAc
# Outline: as §1
# Gal(a1-6)Glc = target: Gal(a1-6)Glc
# Outline: as §1
# Gal(b1-2)Gal = target: Gal(b1-2)Gal
# Outline: as §1
# Gal(b1-3)Gal = target: Gal(b1-3)Gal
# Outline: as §1
# Gal(b1-3)Gal(b1-4)GlcNAc = target: Gal(b1-3)Gal(b1-4)GlcNAc
# Outline: as §1
# Gal(b1-3)GalNAc = target: Gal(b1-3)GalNAc
# Outline: as §1
# [11] = target: Gal(b1-3)GalNAc(a1-3)[Fuc(a1-2)]Gal(b1-4)Glc
# Outline: as §1
# [12] = target: Gal(b1-3)GalNAc(a1-3)[Fuc(a1-2)]Gal(b1-4)GlcNAc
# Outline: as §1
# Gal(b1-3)GalNAc(b1-3)Gal = target: Gal(b1-3)GalNAc(b1-3)Gal
# Outline: as §1
# [13] = target: Gal(b1-3)GalNAc(b1-3)Gal(a1-4)Gal(b1-4)Glc
# Outline: as §1
# [14] = target: Gal(b1-3)GalNAc(b1-4)Gal(b1-4)Glc
# Outline: as §1
# [15] = target: Gal(b1-3)GalNAc(b1-4)[Neu5Ac(a2-3)]Gal(b1-4)Glc
# Outline: as §1
# Gal(b1-3)GlcNAc = target: Gal(b1-3)GlcNAc
# Outline: as §1
# [16] = target: Gal(b1-3)GlcNAc(a1-3)Gal(b1-4)GlcNAc
# Outline: as §1
# [17] = target: Gal(b1-3)GlcNAc(a1-6)Gal(b1-4)GlcNAc
# Outline: as §1
# Gal(b1-3)GlcNAc(b1-2)Man = target: Gal(b1-3)GlcNAc(b1-2)Man
# Outline: as §1
# [18] = target: Gal(b1-3)GlcNAc(b1-2)Man(a1-3)[Gal(b1-3)GlcNAc(b1-2)Man(a1-6)]Man(b1-4)GlcNAc(b1-4)GlcNAc
# Outline: as §1
# [19] = target: Gal(b1-3)GlcNAc(b1-2)Man(a1-3)[Gal(b1-3)GlcNAc(b1-2)Man(a1-6)]Man(b1-4)GlcNAc(b1-4)[Fuc(a1-6)]GlcNAc
# Outline: as §1
# [20] = target: Gal(b1-3)GlcNAc(b1-2)Man(a1-3)[GlcNAc(b1-4)][Gal(b1-3)GlcNAc(b1-2)Man(a1-6)]Man(b1-4)GlcNAc(b1-4)GlcNAc
# Outline: as §1
# [21] = target: Gal(b1-3)GlcNAc(b1-2)[Gal(b1-3)GlcNAc(b1-6)]Man(a1-6)[Gal(b1-3)GlcNAc(b1-2)Man(a1-3)]Man(b1-4)GlcNAc(b1-4)GlcNAc
# Outline: as §1
# [22] = target: Gal(b1-3)GlcNAc(b1-3)Gal(b1-3)GlcNAc
# Outline: as §1
# [23] = target: Gal(b1-3)GlcNAc(b1-3)Gal(b1-4)Glc
# Outline: as §1
# [24] = target: Gal(b1-3)GlcNAc(b1-3)Gal(b1-4)GlcNAc
# Outline: as §1
# [25] = target: Gal(b1-3)GlcNAc(b1-3)Gal(b1-4)GlcNAc(b1-2)Man(a1-3)[Gal(b1-3)GlcNAc(b1-3)Gal(b1-4)GlcNAc(b1-2)Man(a1-6)]Man(b1-4)GlcNAc(b1-4)GlcNAc
# Outline: as §1
# [26] = target: Gal(b1-3)GlcNAc(b1-3)Gal(b1-4)GlcNAc(b1-2)[Gal(b1-3)GlcNAc(b1-3)Gal(b1-4)GlcNAc(b1-6)]Man(a1-6)[Gal(b1-3)GlcNAc(b1-3)Gal(b1-4)GlcNAc(b1-2)Man(a1-3)]Man(b1-4)GlcNAc(b1-4)[Fuc(a1-6)]GlcNAc
# Outline: as §1
# [27] = target: Gal(b1-3)GlcNAc(b1-3)Gal(b1-4)GlcNAc(b1-3)Gal(b1-4)GlcNAc(b1-2)[Gal(b1-3)GlcNAc(b1-3)Gal(b1-4)GlcNAc(b1-3)Gal(b1-4)GlcNAc(b1-6)]Man(a1-6)[Gal(b1-3)GlcNAc(b1-3)Gal(b1-4)GlcNAc(b1-3)Gal(b1-4)GlcNAc(b1-2)Man(a1-3)]Man(b1-4)GlcNAc(b1-4)[Fuc(a1-6)]GlcNAc
# Outline: as §1
# [28] = target: Gal(b1-3)GlcNAc(b1-3)Gal(b1-4)GlcNAc(b1-6)[Gal(b1-3)GlcNAc(b1-3)]Gal(b1-4)Glc
# Outline: as §1
# [29] = target: Gal(b1-3)GlcNAc(b1-3)Gal(b1-4)[Fuc(a1-3)]GlcNAc
# Outline: as §1
# [30] = target: Gal(b1-3)GlcNAc(b1-3)Gal(b1-4)[Fuc(a1-3)]GlcNAc(b1-6)[Gal(b1-3)GlcNAc(b1-3)]Gal(b1-4)Glc
# Outline: as §1
# [31] = target: Gal(b1-3)GlcNAc(b1-3)GalNAc
# Outline: as §1
# [32] = target: Gal(b1-3)GlcNAc(b1-6)Gal(b1-4)GlcNAc
# Outline: as §1
binder,measurement,setting,value
B1,glycan array binding signal (z-score),Gal(a1-3)Gal(b1-4)GlcNAc,-0.58
same,glycan array binding signal (z-score),[1],-0.412
same,glycan array binding signal (z-score),[2],-0.164
same,glycan array binding signal (z-score),[3],-0.507
same,glycan array binding signal (z-score),[4],-0.318
same,glycan array binding signal (z-score),[5],0.036
same,glycan array binding signal (z-score),[6],1.23
same,glycan array binding signal (z-score),Gal(a1-3)GalNAc,-0.159
same,glycan array binding signal (z-score),[7],-0.179
same,glycan array binding signal (z-score),[8],-0.303
same,glycan array binding signal (z-score),Gal(a1-4)Gal(b1-4)Glc,-0.074
same,glycan array binding signal (z-score),Gal(a1-4)Gal(b1-4)GlcNAc,-0.321
same,glycan array binding signal (z-score),[9],-0.131
same,glycan array binding signal (z-score),[10],-0.463
same,glycan array binding signal (z-score),Gal(a1-4)GlcNAc,-0.271
same,glycan array binding signal (z-score),Gal(a1-6)Glc,-0.117
same,glycan array binding signal (z-score),Gal(b1-2)Gal,-0.242
same,glycan array binding signal (z-score),Gal(b1-3)Gal,-0.048
same,glycan array binding signal (z-score),Gal(b1-3)Gal(b1-4)GlcNAc,-0.494
same,glycan array binding signal (z-score),Gal(b1-3)GalNAc,-0.228
same,glycan array binding signal (z-score),[11],-0.422
same,glycan array binding signal (z-score),[12],-0.401
same,glycan array binding signal (z-score),Gal(b1-3)GalNAc(b1-3)Gal,0.049
same,glycan array binding signal (z-score),[13],-0.476
same,glycan array binding signal (z-score),[14],-0.02
same,glycan array binding signal (z-score),[15],-0.464
same,glycan array binding signal (z-score),Gal(b1-3)GlcNAc,-0.134
same,glycan array binding signal (z-score),[16],-0.335
same,glycan array binding signal (z-score),[17],-0.622
same,glycan array binding signal (z-score),Gal(b1-3)GlcNAc(b1-2)Man,-0.267
same,glycan array binding signal (z-score),[18],-0.119
same,glycan array binding signal (z-score),[19],-0.198
same,glycan array binding signal (z-score),[20],0.257
same,glycan array binding signal (z-score),[21],-0.305
same,glycan array binding signal (z-score),[22],-0.424
same,glycan array binding signal (z-score),[23],-0.148
same,glycan array binding signal (z-score),[24],-0.345
same,glycan array binding signal (z-score),[25],-0.321
same,glycan array binding signal (z-score),[26],2
same,glycan array binding signal (z-score),[27],1.05
same,glycan array binding signal (z-score),[28],-0.193
same,glycan array binding signal (z-score),[29],-0.403
same,glycan array binding signal (z-score),[30],-0.275
same,glycan array binding signal (z-score),[31],-0.561
same,glycan array binding signal (z-score),[32],-0.642
